The values below come from paper PMC4336329 (PLoS ONE, 2015).

Screen size: about 310,000 compounds; about 2,200 (0.71%) showed an effect of 50% or more. Effects have a minus sign here. Some of the results follow.

The target in the test is human ether-à-go-go-related gene (hERG) potassium channel (human, UniProt Q12809). Description: primary screen, population patch clamp on CHO cells stably expressing hERG.
human ether-à-go-go-related gene (hERG) potassium channel, sequence (Q12809 whole entry, looked up): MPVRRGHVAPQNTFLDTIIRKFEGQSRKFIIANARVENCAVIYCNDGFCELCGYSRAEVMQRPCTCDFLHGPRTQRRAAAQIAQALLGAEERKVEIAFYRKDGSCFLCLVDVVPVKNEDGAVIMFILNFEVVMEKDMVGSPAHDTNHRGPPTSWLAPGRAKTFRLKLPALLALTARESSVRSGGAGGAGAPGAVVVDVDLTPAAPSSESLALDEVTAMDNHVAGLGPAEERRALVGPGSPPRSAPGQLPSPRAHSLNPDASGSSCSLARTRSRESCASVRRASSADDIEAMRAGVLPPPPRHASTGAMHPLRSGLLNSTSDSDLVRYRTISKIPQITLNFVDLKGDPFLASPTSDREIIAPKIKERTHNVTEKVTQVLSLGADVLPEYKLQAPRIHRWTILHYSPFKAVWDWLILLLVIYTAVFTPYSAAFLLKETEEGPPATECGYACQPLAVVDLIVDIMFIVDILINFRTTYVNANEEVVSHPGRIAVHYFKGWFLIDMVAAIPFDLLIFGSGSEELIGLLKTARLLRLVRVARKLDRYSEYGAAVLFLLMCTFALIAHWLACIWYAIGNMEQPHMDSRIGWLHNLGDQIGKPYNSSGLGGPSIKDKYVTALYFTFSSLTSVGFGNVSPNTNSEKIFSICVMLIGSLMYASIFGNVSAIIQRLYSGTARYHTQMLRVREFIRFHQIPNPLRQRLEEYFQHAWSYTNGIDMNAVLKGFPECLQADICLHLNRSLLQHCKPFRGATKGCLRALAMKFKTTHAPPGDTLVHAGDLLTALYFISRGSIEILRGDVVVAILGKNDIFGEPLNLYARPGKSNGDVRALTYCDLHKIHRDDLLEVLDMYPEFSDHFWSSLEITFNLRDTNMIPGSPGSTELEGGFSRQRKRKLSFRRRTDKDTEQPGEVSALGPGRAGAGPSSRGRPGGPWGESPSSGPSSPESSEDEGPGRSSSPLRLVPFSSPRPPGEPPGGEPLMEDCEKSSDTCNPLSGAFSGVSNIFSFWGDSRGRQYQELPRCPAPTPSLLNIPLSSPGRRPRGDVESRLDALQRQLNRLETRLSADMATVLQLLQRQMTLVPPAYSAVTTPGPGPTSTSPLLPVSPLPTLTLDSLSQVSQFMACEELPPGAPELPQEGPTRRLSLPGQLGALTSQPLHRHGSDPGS
Take `Cn1c(=O)[nH]c(=O)c2c1nc1n2CCCN1Cc1ccccc1`: the “hERG current change (%, negative = inhibition) at 1uM” value turned out to be 13.9%. For the compound `COc1cc2c(cc1NC(=O)C(C)Sc1cccc[n+]1[O-])oc1ccccc12` (stereo not drawn), the “hERG current change (%, negative = inhibition) at 1uM” value was -5.56%. As for `Cc1nccn1CC(=O)c1ccc(O)c(O)c1.Cl`, the “hERG current change (%, negative = inhibition) at 1uM” value came out at 13.8%. To `COc1cc(/C=N/NC(=S)NCCN2CCOCC2)cc(OC)c1O` belongs 8.48%; to `CCN(CC)S(=O)(=O)c1cccc(C(=O)N/N=C/c2ccccn2)c1`, -3.66%. On to `CCC(CO)NC(=O)c1cccc(S(=O)(=O)N2c3ccccc3CC2C)c1` (stereo not drawn), for which the “hERG current change (%, negative = inhibition) at 1uM” value was determined as 5.9%. Turning to `CCOc1ccc(C(=O)C[n+]2ccc(C(=O)NCc3ccccc3)cc2)cc1.[Br-]`, the “hERG current change (%, negative = inhibition) at 1uM” value is listed as 4.11%. In the case of `COc1cc(NC(=O)C2CCCN(c3ncnc4c3nc3n4CCCCC3)C2)cc(OC)c1OC` (stereo not drawn), the “hERG current change (%, negative = inhibition) at 1uM” value is on record as 8.85%. As for `CC(SC1=NCCS1)C(=O)Nc1nnc(-c2ccc(F)cc2)s1` (stereo not drawn), the “hERG current change (%, negative = inhibition) at 1uM” value was determined as 9.18%. `N#C/C(=C/c1ccc(Br)o1)C(N)=S`: the “hERG current change (%, negative = inhibition) at 1uM” value came to 15.8%.

As to `CCC(C)n1c(=O)c2sccc2n2c(CCCC(=O)N3CCC(C(N)=O)CC3)nnc12` (stereo not drawn), the “hERG current change (%, negative = inhibition) at 1uM” value is 1.31%. Consider `O=C(CCCCCNc1nc(=S)[nH]c2ccccc12)N1CCN(c2ccccn2)CC1`, for which the “hERG current change (%, negative = inhibition) at 1uM” value is on record as -12%. On to `O=C(c1ccc(Br)o1)N1CCN(CCOc2ccccc2)CC1`, for which the “hERG current change (%, negative = inhibition) at 1uM” value is listed as -24.1%. To `C=CCNC(=O)NC(=O)COC(=O)C(C)Oc1ccc(Cl)cc1Cl` (stereo not drawn) belongs 16.3%; to `Cc1ccc(C(=O)N/C(=C/c2ccc(Cl)cc2)C(=O)Nc2cccc(C(=O)O)c2)cc1`, 7.54%; to `OCCC1CN(Cc2cccn2-c2nccs2)CCN1Cc1ccccc1` (stereo not drawn), -21.7%. `COc1ccc(F)c(CN(C)CC2CCCN(CCc3ccc(F)cc3)C2)c1` (stereo not drawn): the “hERG current change (%, negative = inhibition) at 1uM” value is recorded as -42.1%. `COc1ccc(N2C(=S)NC(C)(C)CC2(C)c2ccc(OC(C)=O)cc2OC(C)=O)cc1` (stereo not drawn): the “hERG current change (%, negative = inhibition) at 1uM” value is on record as -2.64%. Regarding `CN1c2cccc3cccc(c23)N(C)C1(C)C`, the “hERG current change (%, negative = inhibition) at 1uM” value is recorded as 2.36%. For `CCOC(=O)C1CCN(C(=O)CCS(=O)(=O)c2ccc3c(c2)n(C)c(=O)c(=O)n3C)CC1`, the “hERG current change (%, negative = inhibition) at 1uM” value was determined as 10.2%. `O=C(Nc1ccc2[nH]ncc2c1)c1ccccc1`: the “hERG current change (%, negative = inhibition) at 1uM” value is 17.6%.

Turning to `Cc1cc(NC(=O)c2cc(F)c(F)cc2Cl)no1`, the “hERG current change (%, negative = inhibition) at 1uM” value is on record as 9.29%. To `Cc1cc2cc(CN(Cc3ccc4c(c3)OCO4)Cc3nnnn3C3CCCC3)c(=O)[nH]c2cc1C` belongs 9.37%; to `CC1CCCC(NC(=O)c2ccc3c(=O)n(CC4CCCO4)c(=O)[nH]c3c2)C1C` (stereo not drawn), -4.67%; to `COc1ccc(OCCCC(=O)OCC(=O)Nc2sccc2C(N)=O)cc1`, -6.77%. For the compound `CCOC(=O)C1(Cc2cccc(Cl)c2)CCCN(C(=O)c2cc(C)n(C)n2)C1` (stereo not drawn), the “hERG current change (%, negative = inhibition) at 1uM” value came to 3.36%.

In the case of `CCOC(=O)c1[nH]c(C)c(C(=O)OCC(=O)N(CC)C2CCS(=O)(=O)C2)c1C` (stereo not drawn), the “hERG current change (%, negative = inhibition) at 1uM” value is given as -8.94%. On to `O=c1c(=Nc2ccccc2O)c(=O)c2ccccc12`, for which the “hERG current change (%, negative = inhibition) at 1uM” value came out at 17.3%. Consider `CCOC(=O)CCCC(=O)N1CCOCCOCCOCC1`, for which the “hERG current change (%, negative = inhibition) at 1uM” value was -4.98%. For `CCc1ccc(CCC(=O)Nc2nccs2)o1`, the “hERG current change (%, negative = inhibition) at 1uM” value was -2.36%. With `COc1cc(N2CCOCC2)ccc1/C=C1\C(=O)NC(=O)N(Cc2ccc3c(c2)OCO3)C1=O`, the “hERG current change (%, negative = inhibition) at 1uM” value came to 9.59%. To `COCCNC(=O)Cn1nc(-c2ccc(Cl)cc2)c2ccccc2c1=O` belongs 10.4%; to `O=C1CCN(Cc2cccnc2)CCN1[C@H](CO)Cc1ccccc1`, 1.02%. In the case of `CN1C(=O)/C(=C/c2ccc(C(=O)Nc3ccc(O)cc3C(=O)O)cc2)SC1=S`, the “hERG current change (%, negative = inhibition) at 1uM” value is listed as 12.1%. To `COc1ccc(-c2ccc(CCC(=O)O)n2C(C)C)cc1` belongs -0.0723%; to `COc1ccc(-c2nnc3sc(COc4ccccc4)nn23)cc1`, 4.67%. With `C#CC1(NC(=O)NCCCC)CCCCC1`, the “hERG current change (%, negative = inhibition) at 1uM” value was 14.1%. With `NS(=O)(=O)c1cccc(NC(=O)c2cc3ccccc3o2)c1`, the “hERG current change (%, negative = inhibition) at 1uM” value is 15.5%. Take `CC(CN1CCCCC1)OC(=O)c1ccco1.Cl` (stereo not drawn): the “hERG current change (%, negative = inhibition) at 1uM” value was 19.7%.

As to `Oc1ccc(/C=N/Nc2ccc(Cl)nn2)c(O)c1O`, the “hERG current change (%, negative = inhibition) at 1uM” value was 16.5%. With `CCCCn1c(N)c(N(C)C(=O)c2cn(-c3ccccc3)nc2-c2ccccc2)c(=O)[nH]c1=O`, the “hERG current change (%, negative = inhibition) at 1uM” value is 5.48%.

As to `CCN(CC)CCCNC(=O)c1csc(Nc2cccc3ccccc23)n1`, the “hERG current change (%, negative = inhibition) at 1uM” value is reported as -45.6%. On to `CC(C)c1nc2cc(C(=O)NC(c3cccnc3)C(F)(F)F)ccc2o1` (stereo not drawn), for which the “hERG current change (%, negative = inhibition) at 1uM” value came out at 1.73%.

As for `C=C1C(=O)[C@@]23[C@H](O)C[C@@H]4C(C)(C)CC[C@H](O)[C@]4(C)[C@@H]2C[C@H](O)[C@@H]1[C@H]3O`, the “hERG current change (%, negative = inhibition) at 1uM” value is 7.83%. In the case of `Cc1cc(C(=O)N=Nc2c(O)n(C)c3ccccc23)c(C)o1`, the “hERG current change (%, negative = inhibition) at 1uM” value turned out to be 13.8%.
